Experimental findings from the supplement of paper PMC4723716 are described below.

The subject of the test is Plasmodium falciparum NF54 stage V gametocytes. Put plainly: viability index relative to DMSO control (fraction); higher = less gametocyte killing. As to conditions: 2.5 µM, incubation time: 72 h. The gist of the method: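 Stage V gametocytes of P. falciparum NF54 were held in serum-free screening medium at 0.75% gametocytemia and 1.25% hematocrit, 10 µl per well of a 1,536-well plate, and exposed to compound at 2.5 µM for 72 hr at 37°C under low oxygen. A 3 µl mix of 2.5 µM MitoTracker Red CMXRos with 0.13% saponin was then added for one to two hours, after which one field per well was imaged and red particles of 20–70 µm2 were counted. The viability index equals this count divided by the plate mean from wells given solvent alone.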

The mark [1] stands for this setting: library set: Broad Institute DOS.
Where [2] appears, read: library set: Broad Institute Blood Stage.

Structures are written as SMILES. ± gives the uncertainty stated by the source. In all, about 9,900 compounds were measured (“viability index relative to DMSO control”: median about 1, lowest 2% from about 0.85 on). This is one part of the list.

For the molecule `CN1C(=O)c2cc(NS(=O)(=O)c3cccc(F)c3)ccc2OC[C@@H]2O[C@H](CC(=O)N3CCc4ccccc4C3)CC[C@H]21`, the viability index under setting [1] was found to be 0.969 ± 0.12. In turn, `N#C[C@@H]1[C@H](c2ccccc2C2=CCCC2)[C@@H](CO)N1C(=O)C1CCOCC1` displayed a viability index under setting [1] of 1.11 ± 0.029. Still for that read-out and setting: in the case of `CC(=O)N1CC[C@H]2[C@H](CO)Nc3ccc(-c4ccccc4)cc3[C@H]21` it was 1.02 ± 0.068; in that of `CO[C@@H]1CC[C@@H]2CCOc3ccc(C#N)cc3C(=O)N(C)[C@@H](C)C(=O)N(C)C[C@H]1O2`, 1.1 ± 0.018; in that of `COC(=O)C[C@H]1CC[C@H]2[C@H](COc3ccc(NS(=O)(=O)c4ccc(C)cc4)cc3C(=O)N2C)O1`, 1.17 ± 0.041. Still for that read-out and setting: in the case of `COCC(=O)Nc1ccc2c(c1)OC[C@H](C)N(C)C[C@H](C)[C@@H](OC)CN(C)C2=O` it was 1.04 ± 0.065; in that of `COc1ccc2c3c([nH]c2c1)[C@@H](CO)N(Cc1ccccc1Cl)C[C@]31CN(C1)C(=O)C1CC1`, 0.962 ± 0.029; in that of `COCCNC(=O)C[C@@H]1CC[C@@H]2[C@H](COC[C@H](O)CN2S(=O)(=O)c2ccccc2F)O1`, 1 ± 0.04. On the same count and under the same terms, next, `CC(C)NC(=O)N1[C@H](CO)[C@@H]2c3ccccc3NC[C@@H]21`: 1.01 ± 0.045; `CN1C(=O)c2cc(NS(C)(=O)=O)ccc2OC[C@H]2O[C@H](CC(=O)N3CCOCC3)CC[C@H]21`: 1.05 ± 0.065; `CNC[C@@H]1OCCCC[C@H](C)Oc2ccc(NC(=O)Nc3ccc(OC)cc3)cc2C(=O)N([C@H](C)CO)C[C@H]1C`: 1.05 ± 0.029. Molecule `N#C[C@@H]1[C@H](c2ccc(-c3cccc(F)c3)cc2)[C@H](CO)N1C(=O)CN1CCOCC1` showed a viability index under setting [1] of 1.05 ± 0.025. For `COc1ccc(-c2ccc3c(c2)[C@@H]2[C@@H](CCN2C(=O)c2cccc(F)c2)[C@@H](CO)N3)cc1`, the viability index under setting [1] is 0.996 ± 0.08. Still for that read-out and setting: in the case of `C[C@@H]1CN([C@@H](C)CO)C(=O)c2cc(N(C)C)ccc2O[C@@H](C)CCCCO[C@@H]1CN(C)C(=O)NC1CCCCC1` it was 1.11 ± 0.03; in that of `CNC[C@@H]1Oc2cc(C3=CCCC3)ccc2S(=O)(=O)N([C@@H](C)CO)C[C@H]1C`, 0.939 ± 0.038; in that of `O=C(C[C@@H]1CC[C@@H]2[C@H](COC[C@H](O)CN2CCc2ccccc2)O1)NCCCN1CCOCC1`, 0.996 ± 0.081. Same read-out and setting: in the case of `C[C@H](O)C#Cc1ccc([C@@H]2[C@@H](CO)N3CCCCN(C(=O)c4ccc5c(c4)OCO5)C[C@H]23)cc1` it was 1.04 ± 0.093. `O=C(c1ccccc1F)N1CC(=O)N2[C@H](C1)[C@@H](c1ccc(-c3ccc(F)cc3)cc1)[C@@H]2CO` had a viability index under setting [2] of 0.86 ± 0.04. Under setting [1], `CS(=O)(=O)N1CC(=O)N2[C@H](C1)[C@H](c1ccc(Br)cc1)[C@@H]2CO` registered a viability index of 0.958 ± 0.022. The same measure, in the same setting: in the case of `O=C(NCC[C@@H]1CC[C@H](NS(=O)(=O)c2ccc(F)cc2)[C@H](CO)O1)c1ccc2c(c1)OCO2` it was 0.955 ± 0.046. Under setting [1], `C[C@H](CO)N1C[C@H](C)[C@@H](CN(C)S(=O)(=O)c2cn(C)cn2)OCCCC[C@H](C)Oc2ccc(N(C)C)cc2C1=O` registered a viability index of 1.03 ± 0.031. The same measure, in the same setting: next, `C/C=C/c1ccccc1[C@@H]1[C@@H](CO)N(C(=O)c2cccnc2)[C@H]1C#N`: 1.07 ± 0.033.

In the case of `C[C@H](CO)N1C[C@H](C)[C@H](CN(C)C(=O)c2ccc(N3CCN(C)CC3)cc2)OCc2cnnn2CCCC1=O`, the viability index under setting [1] came out at 1.08 ± 0.067. Under setting [1], `CO[C@@H]1CC[C@H]2CCN(C)C(=O)[C@H](C)N(C)C(=O)c3cccc(C#N)c3OC[C@@H]1O2` gave a viability index of 1.11 ± 0.083. Still for that read-out and setting: next, `CN1C(=O)c2cc(NS(=O)(=O)c3ccccc3F)ccc2OC[C@H]2O[C@@H](CC(=O)NC3Cc4ccccc4C3)CC[C@H]21`: 0.976 ± 0.089; `COc1ccc(NC(=O)N2CC[C@@H]3[C@H]2c2cc(C4=CCCCC4)ccc2N(C)[C@H]3CO)cc1`: 1.05 ± 0.095. Still for that read-out and setting: in the case of `COc1ccc2c3c([nH]c2c1)[C@H](CO)N(Cc1ccccn1)C[C@]31CN(C1)C(=O)CC1CC1` it was 1.03 ± 0.12. Still for that read-out and setting: in the case of `O=S(=O)(c1ccc(F)cc1)N1CCCCN2[C@H](CO)[C@H](c3ccc(-c4cncnc4)cc3)[C@@H]2C1` it was 1.11 ± 0.033.

Consider `O=S(=O)(c1ccccc1)N1CCCCN2[C@H](CO)[C@H](c3ccc(C#CC4CCCC4)cc3)[C@H]2C1`, for which the viability index under setting [1] came out at 0.8253 ± 0.0077.

Molecule `CN(C)C(=O)C[C@@H]1CC[C@@H]2[C@H](COC[C@H](O)CN2S(=O)(=O)c2ccccc2Cl)O1` had a viability index under setting [1] of 1.1 ± 0.065. Turning to `COc1ccc2c3c([C@H](CO)N(C[C@]33CN(CC4CC4)C3)C(=O)Nc3c(C)noc3C)n(C)c2c1`, the viability index under setting [1] stood at 0.993 ± 0.06.

Under setting [1], `C[C@@H]1CCCCO[C@@H](CN(C)Cc2ccc(C(F)(F)F)cc2)[C@@H](C)CN([C@@H](C)CO)C(=O)c2cc(NC(=O)Nc3cccc4ccccc34)ccc2O1` showed a viability index of 0.983 ± 0.12. The same measure, in the same setting: next, `O=C(Cc1ccccc1)N1CC[C@@H]2[C@H](CO)Nc3ccc(C4=CCCCC4)cc3[C@@H]21`: 0.915 ± 0.036. Same read-out and setting: in the case of `CO[C@H]1CN(C)C(=O)c2cc(NS(=O)(=O)c3cccc(Cl)c3)ccc2OC[C@H](C)NC[C@H]1C` it was 1.01 ± 0.041; in that of `O=C(C[C@H]1C=C[C@@H](NC(=O)Nc2ccc3c(c2)OCO3)[C@H](CO)O1)NCCCN1CCOCC1`, 0.919 ± 0.074. Same read-out and setting: next, `CCN(C[C@@H]1N[C@H](CO)[C@H]1c1ccccc1)C(=O)c1ccncc1`: 1.02 ± 0.0022. Molecule `COCC#Cc1ccc([C@H]2[C@@H](CO)N3CCCCN(Cc4cccnc4)C[C@H]23)cc1` registered a viability index under setting [1] of 1 ± 0.023.

`C[C@@H]1CN([C@@H](C)CO)C(=O)CCCn2nncc2CO[C@H]1CN(C)C(=O)NC1CCCC1` came in with a viability index under setting [1] of 0.9902 ± 0.0089.

Take `O=C(C[C@@H]1CC[C@@H]2[C@H](COC[C@H](O)CN2C(=O)c2ccncc2)O1)Nc1ccc(-c2ccccc2)cc1`: under setting [1], the viability index was determined as 0.9775 ± 0.0015. On the same count and under the same terms, next, `CN1C(=O)c2cc(NC(=O)c3cnccn3)ccc2OC[C@H]2O[C@@H](CC(=O)N[C@@H]3CCN(Cc4ccccc4)C3)CC[C@H]21`: 0.896 ± 0.1; `CCCC#Cc1cnc2c(c1)C(=O)N([C@H](C)CO)C[C@@H](C)[C@@H](CN(C)C(=O)Nc1cc(F)ccc1F)O2`: 1.06 ± 0.092; `Cc1noc(C)c1NC(=O)N(C)C[C@@H]1OCc2ccccc2-c2c(n(C)c3ccccc23)C(=O)N([C@@H](C)CO)C[C@@H]1C`: 1.02 ± 0.13. `COc1cccc(CN2CCCCN3[C@H](CO)[C@@H](c4ccc(C#Cc5cccnc5)cc4)[C@@H]3C2)c1` yielded a viability index under setting [2] of 0.841 ± 0.06.

The molecule `CO[C@H]1CC[C@H]2CCOc3c(C#N)cccc3C(=O)N(C)C[C@@H](c3ccccc3)CC(=O)N(C)C[C@H]1O2` had a viability index under setting [1] of 1.056 ± 0.0027.

The molecule `CCS(=O)(=O)N1CC(=O)N2[C@H](CO)[C@H](c3ccc(C4=CCCCC4)cc3)[C@@H]2C1` showed a viability index under setting [1] of 1.01 ± 0.11.

As to `Cc1ccc(S(=O)(=O)N(C)C[C@@H]2Oc3c(NS(C)(=O)=O)cccc3C(=O)N([C@@H](C)CO)C[C@@H]2C)cc1`, the viability index under setting [1] came to 0.968 ± 0.0089.
